Source: PubChem BioAssay AID624418 (National Center for Advancing Translational Sciences (NCATS), 2012)
Screen size: about 410,000 compounds; about 530 (0.13%) were called active. The shares of active, inactive and inconclusive entries below differ from those in the screen. Calls follow the shape of the dose curve; as a rule, active = well fitted inhibition curve with a large enough effect; inconclusive = small, poorly fitted or top-dose-only effect, or another doubt; inactive = no such curve, though single readings can be large or run the other way. A potency beside an inconclusive call is a rough fit, not a confirmed value.

experiment: qHTS of GLP-1 Receptor Inverse Agonists: Cytotox Screen; conditions: HEK293 cAMP-luciferase reporter cells, luminescence, 24 h; activity change, negative = inhibition: at 38.3 µM (top of the series) unless noted
How it was run: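 Luminescence readout: signal drop marks cytotoxicity. Plated cells grew 12 h at 37 °C, 5% CO2, received 23 nL compound for 24 h, then got luciferase reagent, read after 12 min at RT.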
% is scaled to controls: 0 for no effect and ±100 for the full control effect; potency is read from the fitted curve at half-maximal effect.

| SMILES | Potency | activity change, negative = inhibition |
| --- | --- | --- |
| OCCCCCN=c1cc(-c2ccccc2)oc2ccc(Cl)cc12 | inconclusive: 11.2 µM [inhibitor, single point] |  |
| c1ccc(NN=C(c2ccccc2)c2cccs2)cc1 |  | inactive: 9.85% |
| CCCNC(=O)CCC(NS(=O)(=O)c1ccc(C)cc1)C(=O)NCCC (centres undefined) |  | inactive: -5.17% |
| Cc1ccc(-c2n[nH]c(=S)n2-c2ccccc2)cc1 | inconclusive: 22.4 µM [inhibitor, single point] |  |
| O=C(CSc1ccccn1)N/N=C/C=C/c1ccccc1 |  | inactive: 7.6% |
| COc1cc(C2C(C(=O)Nc3ccccc3C)=C(C)Nc3nc(SCc4cc(C)ccc4C)nn32)ccc1O (centres undefined) |  | inactive: 5.38% |
| COc1cc2c(cc1OC)C(c1cc(Br)ccc1F)N(C(=O)CCl)CC2 (centres undefined) | inconclusive: 10 µM [inhibitor, partial curve, poor fit] |  |
| O=S(=O)(N/N=C/c1ccccc1OCc1ccc(Cl)cc1)c1ccccc1 | inconclusive: 22.4 µM [inhibitor, single point] |  |
| O=C(Nc1cccc(Cl)c1)C1CC1c1ccccc1 (centres undefined) | inconclusive: 3.16 µM [inhibitor, full curve, poor fit] |  |
| CC1CCCCN1CCCNc1ccc(C(CC(N)=O)NC(=O)Cc2cccc3ccccc23)cc1[N+](=O)[O-] (centres undefined) | inconclusive: 0.501 µM [inhibitor, full curve, poor fit] |  |
| COc1ccc(-c2nn(-c3ccccc3)cc2C(=O)Nc2nccs2)cc1OC | inconclusive: 31.6 µM [inhibitor, single point] |  |
| COc1ccc(C(=O)NCc2nnc(SCC(=O)Nc3nc4ccccc4s3)o2)cc1 | inconclusive: 7.94 µM [inhibitor, partial curve, poor fit] |  |
| CCCCn1cnc2c(c(-c3ccccc3)c(-c3ccccc3)n2Cc2ccco2)c1=N | inconclusive: 12.6 µM [inhibitor, single point] |  |
| CCNC(=S)N/N=C/c1ccc(C#N)cc1 | inconclusive: 12.6 µM [inhibitor, partial curve, poor fit] |  |
| COc1ccc2c(c1)C(=O)C(=O)N2CCS(=O)(=O)c1ccccc1 | inconclusive: 2.51 µM [inhibitor, full curve] |  |
| C/C(CC(=O)Nc1cc(C)ccn1)=N\NC(=O)c1ccccc1C | inconclusive: 28.2 µM [inhibitor, single point] |  |
| Cc1c(Cl)cccc1NC(=O)c1oc2ccc(S(=O)(=O)N3CCC4(CC3)OCCO4)cc2c1C |  | inactive: -13.6% |
| O=C(NC(=S)N1CCN(c2ccc(O)cc2)CC1)c1ccco1 | inconclusive: 28.2 µM [inhibitor, single point] |  |
| COCCNC(=O)c1cn(Cc2c(F)cccc2Cl)nn1 |  | inactive: 20.2% |
